Results published in the supplement of paper PMC10338343.
± gives the standard deviation. The list shows a part of the results, in another mix than the full data.

System: MIWI (PIWIL1) piRISC loaded with piRNA #1 (30 nt)
Experiment: pre-steady-state target cleavage rate (min^-1); MIWI and MILI are mouse PIWI proteins and EfPiwi is from a freshwater sponge; tags in brackets are library labels; higher = faster piRNA-guided slicing of the target
Settings: guide: piRNA #1 5'p-UGAGGUAGUAGGUUGUAUAGUAUCCAGAGG; auxiliary factor: 500 nM mouse GTSF1
Method in brief: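 The pre-steady-state cleavage rate was obtained by Cleave-'n-Seq with a burst-and-steady-state fit. A transcribed, DNA-blocked target RNA library (0.1 nM) was mixed with 1 nM active affinity-purified piRISC carrying one synthetic guide, with or without 500 nM GTSF1 partner protein, in HEPES–potassium acetate buffer at 33 °C for 0–8 or 0–960 min. Uncleaved targets were sequenced and normalised to depth and to weakly complementary targets, with three trials pooled and k3 capped at 0.0001 min^-1.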

Sequence | pre-steady-state target cleavage rate
GGACUGGUACUAUACAACCUACUACCUCA | 1.63 ± 0.13
GGAGACGAUACUAUACAACCUACAAGCUCA | 0.219 ± 0.049
GGAGACCAUAGUAUACAACCUACUAGCUCA | 0.0867 ± 0.015
GGUCUGGAUACUAUUCAACCUACUACCUCA | 1.7 ± 0.11
GGAGUGGUUACUAUACAAGCUACUACCUCA | 0.764 ± 0.039
CCUCAGGAUACUAUACAACCAACUACCUCA | 0.175 ± 0.02
GGAGACGAUUACUAUACAACCUACUACCUCA | 1.68 ± 0.14
GGAGACGAUACUCUACAACCUACUACCUCA | 1.53 ± 0.094
GGACUGGAUACUAUACAACCUACUACGCUCA | 0.564 ± 0.072
GGAGUGGAUACAAUUCAACCUACUACCUCA | 1.36 ± 0.1
CCUCUGGAUAGAUUACAACCUACUACCUCA | 0.803 ± 0.063
GGAGACCUAUGUAUACAACCUACUACUUCA | 0.3 ± 0.035
GGAGACCUAACUAUUGUACCUACUACCUCA | < 0.0001
GGAGACCAUACUAGACAACCUACUACCUCA | 1.37 ± 0.13
GGAGAGGAUACUAUACAACCCACUACCUCA | 0.658 ± 0.034
GGAGACGAUACUAUAGAACCUACAACCUCA | 0.00664 ± 0.0041
GGAGACCUUACAAUAGAACCUACUACCUCA | 0.167 ± 0.022
GGAGACCUAUCUAAACAACCUACUACCUCA | 0.144 ± 0.031
GGAGAGGAUACUUACAACCUACUACCUCA | 0.905 ± 0.064
GGAGUCGAUACAAUACAACCUACUACCUCA | 1.44 ± 0.11
CCUCUGGAUACUAAACAACCAACUACCUCA | 0.173 ± 0.022
GCUCUGGAUACUAUACAACCUACUUGGUCA | 0.0102 ± 0.0042
GGACUGGAUACUAUUCAACCUUCUACCUCA | 0.578 ± 0.04
GGAGUGGAUACUAUACAACCUCCUACCUCA | 0.833 ± 0.047
